# The supplement of paper PMC8728848
# This is one part of the list.
# B1: ECL (Erythrina cristagalli), Q6YD91 (protein)
# chain: VETISFSFSEFEPGNNDLTLQGAAIITQSGVLQLTKINQNGMPAWDSTGRTLYTKPVHIWDMTTGTVASFETRFSFSIEQPYTRPLPADGLVFFMGPTKSKPAQGYGYLGVFNNSKQDNSYQTLAVEFDTFSNPWDPPQVPHIGIDVNSIRSIKTQPFQLDNGQVANVVIKYDASSKILLAVLVYPSSGAIYTIAEIVDVKQVLPEWVDVGLSGATGAQRDAAETHDVYSWSFHASLPETND
# Key:
# Experiment in all cases: glycan array binding signal (z-score within array); higher = stronger binding
# Conditions in all cases: glycan notation: IUPAC condensed, linker removed
# [1] = molecular target: Neu5Ac(a2-6)Gal(b1-4)GlcNAc(b1-6)GalNAc
# Method in brief: (§1)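 Columns mapping to the same glycan were averaged after glycan names were converted to IUPAC-condensed notation. The data come from 3228 arrays in the Consortium for Functional Glycomics database, limited to those with an available protein sequence. Binding is reported as a within-array Z-score averaged across arrays of one protein sequence and across linkers.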
# [2] = molecular target: Neu5Ac(a2-6)Gal(b1-4)GlcNAc(b1-6)[Gal(b1-3)GlcNAc(b1-3)]Gal(b1-4)Glc
# Method in brief: as §1
# [3] = molecular target: Neu5Ac(a2-6)Gal(b1-4)GlcNAc(b1-6)[Gal(b1-3)]GalNAc
# Method in brief: as §1
# [4] = molecular target: Neu5Ac(a2-6)Gal(b1-4)GlcNAc6S
# Method in brief: as §1
# Neu5Ac(a2-6)GalNAc = molecular target: Neu5Ac(a2-6)GalNAc
# Method in brief: as §1
# [5] = molecular target: Neu5Ac(a2-6)GalNAc(b1-4)GlcNAc
# Method in brief: as §1
# [6] = molecular target: Neu5Ac(a2-6)GalNAc(b1-4)GlcNAc6S
# Method in brief: as §1
# [7] = molecular target: Neu5Ac(a2-6)GlcNAc(b1-4)GlcNAc
# Method in brief: as §1
# [8] = molecular target: Neu5Ac(a2-6)GlcNAc(b1-4)GlcNAc(b1-4)GlcNAc
# Method in brief: as §1
# Neu5Ac(a2-8)Neu5Ac = molecular target: Neu5Ac(a2-8)Neu5Ac
# Method in brief: as §1
# [9] = molecular target: Neu5Ac(a2-8)Neu5Ac(a2-3)Gal(b1-3)GalNAc(b1-4)[Neu5Ac(a2-3)]Gal(b1-4)Glc
# Method in brief: as §1
# [10] = molecular target: Neu5Ac(a2-8)Neu5Ac(a2-3)Gal(b1-3)GalNAc(b1-4)[Neu5Ac(a2-8)Neu5Ac(a2-3)]Gal(b1-4)Glc
# Method in brief: as §1
# [11] = molecular target: Neu5Ac(a2-8)Neu5Ac(a2-3)Gal(b1-4)Glc
# Method in brief: as §1
# [12] = molecular target: Neu5Ac(a2-8)Neu5Ac(a2-3)Gal(b1-4)GlcNAc
# Method in brief: as §1
# [13] = molecular target: Neu5Ac(a2-8)Neu5Ac(a2-3)[Gal(b1-3)GalNAc(b1-4)]Gal(b1-4)Glc
# Method in brief: as §1
# [14] = molecular target: Neu5Ac(a2-8)Neu5Ac(a2-3)[GalNAc(b1-4)]Gal(b1-4)Glc
# Method in brief: as §1
# [15] = molecular target: Neu5Ac(a2-8)Neu5Ac(a2-8)Neu5Ac
# Method in brief: as §1
# [16] = molecular target: Neu5Ac(a2-8)Neu5Ac(a2-8)Neu5Ac(a2-3)Gal(b1-4)Glc
# Method in brief: as §1
# [17] = molecular target: Neu5Ac(a2-8)Neu5Ac(a2-8)Neu5Ac(a2-3)[Gal(b1-3)GalNAc(b1-4)]Gal(b1-4)Glc
# Method in brief: as §1
# [18] = molecular target: Neu5Ac(a2-8)Neu5Ac(a2-8)Neu5Ac(a2-3)[GalNAc(b1-4)]Gal(b1-4)Glc
# Method in brief: as §1
# [19] = molecular target: Neu5Ac(a2-8)Neu5Ac(a2-8)Neu5Ac(a2-8)Neu5Ac(a2-3)[GalNAc(b1-4)]Gal(b1-4)Glc
# Method in brief: as §1
# [20] = molecular target: Neu5Ac(a2-8)Neu5Gc(a2-3)Gal(b1-4)GlcNAc
# Method in brief: as §1
# [21] = molecular target: Neu5Ac(b2-6)Gal(b1-4)GlcNAc
# Method in brief: as §1
# Neu5Ac(b2-6)GalNAc = molecular target: Neu5Ac(b2-6)GalNAc
# Method in brief: as §1
# [22] = molecular target: Neu5Ac9Ac(a2-3)Gal(b1-4)GlcNAc
# Method in brief: as §1
# [23] = molecular target: Neu5Ac9Ac(a2-6)Gal(b1-4)GlcNAc
# Method in brief: as §1
# [24] = molecular target: Neu5Gc(a2-3)Gal(b1-3)GlcNAc
# Method in brief: as §1
# [25] = molecular target: Neu5Gc(a2-3)Gal(b1-3)[Fuc(a1-4)]GlcNAc
# Method in brief: as §1
# Neu5Gc(a2-3)Gal(b1-4)Glc = molecular target: Neu5Gc(a2-3)Gal(b1-4)Glc
# Method in brief: as §1
# [26] = molecular target: Neu5Gc(a2-3)Gal(b1-4)GlcNAc
# Method in brief: as §1
# [27] = molecular target: Neu5Gc(a2-3)Gal(b1-4)GlcNAc(b1-3)Gal(b1-4)GlcNAc(b1-2)Man(a1-3)[Neu5Gc(a2-3)Gal(b1-4)GlcNAc(b1-3)Gal(b1-4)GlcNAc(b1-2)Man(a1-6)]Man(b1-4)GlcNAc(b1-4)GlcNAc
# Method in brief: as §1
# [28] = molecular target: Neu5Gc(a2-3)Gal(b1-4)[Fuc(a1-3)]GlcNAc
# Method in brief: as §1
# [29] = molecular target: Neu5Gc(a2-6)Gal(b1-4)GlcNAc
# Method in brief: as §1
# Neu5Gc(a2-6)GalNAc = molecular target: Neu5Gc(a2-6)GalNAc
# Method in brief: as §1
# [30] = molecular target: Neu5Gc(a2-8)Neu5Ac(a2-3)Gal(b1-4)GlcNAc
# Method in brief: as §1
# [31] = molecular target: Neu5Gc(a2-8)Neu5Gc(a2-3)Gal(b1-4)GlcNAc
# Method in brief: as §1
# [32] = molecular target: Neu5Gc(a2-8)Neu5Gc(a2-3)Gal(b1-4)GlcNAc(b1-3)Gal(b1-4)GlcNAc
# Method in brief: as §1
# [33] = molecular target: Neu5Gc(a2-8)Neu5Gc(a2-6)Gal(b1-4)GlcNAc
# Method in brief: as §1
binder,measurement,setting,value
B1,glycan array binding signal (z-score),[1],-0.164
same,glycan array binding signal (z-score),[2],-0.261
same,glycan array binding signal (z-score),[3],-0.109
same,glycan array binding signal (z-score),[4],-0.501
same,glycan array binding signal (z-score),Neu5Ac(a2-6)GalNAc,-0.481
same,glycan array binding signal (z-score),[5],-0.3
same,glycan array binding signal (z-score),[6],-0.061
same,glycan array binding signal (z-score),[7],-0.382
same,glycan array binding signal (z-score),[8],-0.097
same,glycan array binding signal (z-score),Neu5Ac(a2-8)Neu5Ac,-0.148
same,glycan array binding signal (z-score),[9],-0.397
same,glycan array binding signal (z-score),[10],0.104
same,glycan array binding signal (z-score),[11],-0.433
same,glycan array binding signal (z-score),[12],-0.332
same,glycan array binding signal (z-score),[13],-0.174
same,glycan array binding signal (z-score),[14],-0.001
same,glycan array binding signal (z-score),[15],-0.307
same,glycan array binding signal (z-score),[16],-0.343
same,glycan array binding signal (z-score),[17],-0.186
same,glycan array binding signal (z-score),[18],-0.136
same,glycan array binding signal (z-score),[19],-0.326
same,glycan array binding signal (z-score),[20],-0.457
same,glycan array binding signal (z-score),[21],-0.539
same,glycan array binding signal (z-score),Neu5Ac(b2-6)GalNAc,-0.388
same,glycan array binding signal (z-score),[22],-0.223
same,glycan array binding signal (z-score),[23],-0.328
same,glycan array binding signal (z-score),[24],-0.291
same,glycan array binding signal (z-score),[25],-0.155
same,glycan array binding signal (z-score),Neu5Gc(a2-3)Gal(b1-4)Glc,-0.117
same,glycan array binding signal (z-score),[26],-0.328
same,glycan array binding signal (z-score),[27],-0.151
same,glycan array binding signal (z-score),[28],-0.217
same,glycan array binding signal (z-score),[29],-0.324
same,glycan array binding signal (z-score),Neu5Gc(a2-6)GalNAc,-0.301
same,glycan array binding signal (z-score),[30],-0.563
same,glycan array binding signal (z-score),[31],-0.493
same,glycan array binding signal (z-score),[32],-0.37
same,glycan array binding signal (z-score),[33],-0.387
